Measurements: PubChem BioAssay AID686979 (National Center for Advancing Translational Sciences (NCATS), 2013)
About 50,000 (12%) of roughly 420,000 compounds were called active. Inconclusive means that the source gave no clear call. Such entries were picked first, then a sample of the others. Calls come from the whole dose curve; as a rule, active = well fitted inhibition curve with a large enough effect; inconclusive = small, poorly fitted or top-dose-only effect; inactive = flat fitted curve, though single readings scatter. Potencies of inconclusive entries are left out as doubtful fits.

Assay: qHTS for Inhibitors of human tyrosyl-DNA phosphodiesterase 1 (TDP1): qHTS in cells in presence of CPT; note: nearly all actives have a fitted effect of over 55% in size
Conditions: chicken DT40 Tdp1-/-;hTDP1 cells + 20 nM CPT, ATP luminescence, 48 h; series mostly up to 46.2 µM
Summary of the method: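 Chicken DT40 Tdp1-/- cells complemented with human TDP1, 400 cells/well, exposed to compounds plus 20 nM camptothecin for at least 48 h at 37 C; viability read as ATP content by CellTiter-Glo luminescence.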
Potency is the fitted concentration of half-maximal effect; tags give direction and shape of the fitted curve.

Question: For Cc1cccc(N2CCC3(CC2)C(=O)NC(=O)NC3=O)c1, which Potency is on record?
Answer: Its Potency is “inactive”.

Question: Which Potency does the source give for OCCN(CC#CC(O)(c1ccccc1)C1CCCC1)CCO (configuration not stated) here?
Answer: Its Potency is “inactive”.

Question: For CCCCCCN=C(CC)c1c(O)n(CCCC)c(=O)[nH]c1=O, which Potency is on record?
Answer: Its Potency is active: 14.6 µM.

Question: For Cc1ccc(-n2c(/C=C/c3cccs3)nc3ccccc3c2=O)cc1C, which Potency is on record?
Answer: The Potency was inconclusive [inhibitor, single point].

Question: With CCCCNCC(O)c1ccc(O)cc1 (configuration not stated) as the compound, how does the Potency read?
Answer: Its Potency is “inactive”.

Question: For CCN1C(=O)C(=Cc2c(C)n(CC(=O)NCC3CCCO3)c3ccccc23)C(=O)N(CC)C1=S (configuration not stated), which Potency is on record?
Answer: Its Potency is inconclusive [inhibitor, partial curve, poor fit].

Question: For CCCCCCCCCC[Si](C)(C)CCC(=O)N[C@@H](Cc1ccc(C)cc1)c1ccccc1, which Potency is on record?
Answer: The Potency was inconclusive [inhibitor, partial curve].

Question: For N#Cc1ccccc1Cn1cc(C(=O)c2ccccc2F)c2ccccc21, which Potency is on record?
Answer: Its Potency is inconclusive [inhibitor, partial curve, poor fit].

Question: Which Potency does the source give for CCN(CC)CCC(=O)O[C@H]1CC[C@]2(C)C3CC[C@@]4(C)C(CC[C@]4(C)O)C3CC[C@H]2C1 (some centres not stated) here?
Answer: Its Potency is inconclusive [inhibitor, single point].

Question: Which Potency does the source give for C/C(CC(c1ccccc1)c1c(O)c2ccccc2oc1=O)=N\Nc1ccc([N+](=O)[O-])cc1[N+](=O)[O-] (configuration not stated) here?
Answer: The Potency was inconclusive [inhibitor, full curve, poor fit].

Question: For c1cc(N2CCCC3(CCNCC3)C2)ccn1, which Potency is on record?
Answer: Its Potency is active: 9.2 µM.

Question: With CCN1CCN(c2ccc([N+](=O)[O-])cc2C=C2C(=O)NC(=O)NC2=O)CC1 as the compound, how does the Potency read?
Answer: Its Potency is “inactive”.

Question: With Cc1cc(O)c2c(c1)OC(C)(C)C1=C2CC(C)CC1 (configuration not stated) as the compound, how does the Potency read?
Answer: The Potency was inconclusive [inhibitor, partial curve].

Question: With CCOC(=O)c1cn2nc(OP(=S)(OCC)OCC)cc2nc1C as the compound, how does the Potency read?
Answer: Its Potency is inconclusive [inhibitor, single point].

Question: For COc1ccc(-c2nn(CCC#N)cc2C(=O)Nc2cccc([N+](=O)[O-])c2)cc1OC, which Potency is on record?
Answer: The Potency was “inactive”.

Question: With CC(C)COC(=O)c1ccccc1C(=O)OCC(C)C as the compound, how does the Potency read?
Answer: The Potency was inconclusive [inhibitor, partial curve].

Question: With CC[C@H]1OC(=O)C[C@@H](O)[C@H](C)[C@@H](O[C@@H]2O[C@H](C)[C@@H](O[C@H]3C[C@@](C)(O)[C@@H](O)[C@H](C)O3)[C@H](N(C)C)[C@H]2O)[C@@H](CC=O)C[C@@H](C)C(=O)/C=C/C(C)=C/[C@@H]1CO[C@@H]1O[C@H](C)[C@@H](O)[C@@H](OC)[C@H]1OC as the compound, how does the Potency read?
Answer: Its Potency is inconclusive [inhibitor, single point].
